The record followed here is PMC4336329 (PLoS ONE, 2015).

In all, about 310,000 compounds went through this assay and about 2,200 (0.71%) showed an effect of 50% or more. The effect is printed as a negative number. The list shows a part of the results.

human ether-à-go-go-related gene (hERG) potassium channel, sequence (Q12809 whole entry, looked up): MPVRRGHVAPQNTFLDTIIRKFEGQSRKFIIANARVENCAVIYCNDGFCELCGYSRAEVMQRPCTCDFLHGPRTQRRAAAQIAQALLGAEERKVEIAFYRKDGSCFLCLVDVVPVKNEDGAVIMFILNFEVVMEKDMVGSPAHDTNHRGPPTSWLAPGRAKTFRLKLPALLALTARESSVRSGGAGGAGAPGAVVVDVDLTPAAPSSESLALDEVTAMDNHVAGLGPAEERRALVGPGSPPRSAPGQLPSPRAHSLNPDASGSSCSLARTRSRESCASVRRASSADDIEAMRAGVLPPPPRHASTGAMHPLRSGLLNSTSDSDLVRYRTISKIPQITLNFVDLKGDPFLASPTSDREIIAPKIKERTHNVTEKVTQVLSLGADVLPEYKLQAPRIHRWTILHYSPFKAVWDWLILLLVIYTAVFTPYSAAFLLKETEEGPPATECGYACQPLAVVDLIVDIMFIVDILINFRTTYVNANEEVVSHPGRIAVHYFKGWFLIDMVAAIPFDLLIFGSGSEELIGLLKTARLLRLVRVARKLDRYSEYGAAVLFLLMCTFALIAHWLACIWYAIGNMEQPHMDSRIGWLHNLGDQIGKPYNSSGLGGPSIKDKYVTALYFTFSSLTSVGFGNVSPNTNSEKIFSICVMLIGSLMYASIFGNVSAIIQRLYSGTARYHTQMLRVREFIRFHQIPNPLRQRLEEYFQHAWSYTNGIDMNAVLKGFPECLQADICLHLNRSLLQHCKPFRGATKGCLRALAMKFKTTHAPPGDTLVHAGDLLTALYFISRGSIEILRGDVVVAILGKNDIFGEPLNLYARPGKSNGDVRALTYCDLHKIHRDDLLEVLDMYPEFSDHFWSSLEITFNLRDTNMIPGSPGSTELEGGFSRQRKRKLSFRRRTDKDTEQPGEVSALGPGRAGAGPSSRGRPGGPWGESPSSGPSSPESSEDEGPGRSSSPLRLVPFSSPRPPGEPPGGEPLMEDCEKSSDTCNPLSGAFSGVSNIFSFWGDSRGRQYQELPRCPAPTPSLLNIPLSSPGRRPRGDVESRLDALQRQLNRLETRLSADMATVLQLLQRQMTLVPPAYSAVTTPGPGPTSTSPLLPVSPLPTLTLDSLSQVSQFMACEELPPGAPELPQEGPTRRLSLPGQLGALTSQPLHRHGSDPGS

The experiment addresses human ether-à-go-go-related gene (hERG) potassium channel (human, UniProt Q12809). Kind of experiment: primary screen, population patch clamp on CHO cells stably expressing hERG.
As to `CCCNS(=O)(=O)c1ccc(OCC(=O)N2CCN(Cc3ccc4c(c3)OCO4)CC2)cc1`, the “hERG current change (%, negative = inhibition) at 1uM” value is recorded as 6.6%.
Take `O=C(C1CCC1)N1CCc2cc(S(=O)(=O)NCCCN3CCCCC3)ccc21`: the “hERG current change (%, negative = inhibition) at 1uM” value was 17%.
In the case of `Cn1cc(S(=O)(=O)c2ccccc2)c(=O)c2cc(Cl)ccc21`, the “hERG current change (%, negative = inhibition) at 1uM” value amounted to 81%.
As for `O=C1SC(c2ccccc2)=N/C1=C/c1ccco1`, the figure is 6.8%.
`CCC(=NCCc1c(C)[nH]c2ccccc12)C1=C(O)CC(c2ccccc2)CC1=O` (stereo not drawn): the “hERG current change (%, negative = inhibition) at 1uM” value stood at 2.33%.
In the case of `Cc1nc2nc(CC(=O)O)[nH]n2c(=O)c1[N+](=O)[O-]`, the “hERG current change (%, negative = inhibition) at 1uM” value is recorded as 14.1%.
Turning to `O=[N+]([O-])c1cc(C(F)(F)F)ccc1NCCCCNS(=O)(=O)c1ccc2ccccc2c1`, the “hERG current change (%, negative = inhibition) at 1uM” value came out at 0.128%.
For the molecule `Cc1cc(C)cc(NC(=O)CCN2CCCC2)c1`, the “hERG current change (%, negative = inhibition) at 1uM” value worked out at 0.603%.
With `CC(=O)NNC(=S)NCCc1ccccc1`, the “hERG current change (%, negative = inhibition) at 1uM” value is recorded as 8.56%.
`O=C(OCc1ccc(O)cc1)c1c(-c2ccsc2)oc2ccc(N3CCOCC3)cc12`: the “hERG current change (%, negative = inhibition) at 1uM” value was determined as 7.34%.
On to `CN(C)c1nc(N2CCN(c3ccccc3)CC2)c(C#N)c(=O)o1`, for which the “hERG current change (%, negative = inhibition) at 1uM” value is recorded as -5.61%.
Take `COC(=O)Cc1c(C)c2c(O)cc(C)cc2oc1=O`: the “hERG current change (%, negative = inhibition) at 1uM” value came out at 3.78%.
For `COc1cc(CCCN2C(=O)C(=O)NC[C@@H]2c2ccccc2)cc(OC)c1OC`, the “hERG current change (%, negative = inhibition) at 1uM” value is given as 5.72%.
As for `COc1ccc(OCC(=O)NC2CCCN(Cc3ccc(Cl)cc3)C2)cc1` (stereo not drawn), the figure is 9.23%; as for `O=C(NC(CO)c1ccccc1)c1ccco1` (stereo not drawn), 10.3%; as for `c1ccc(CCCc2nc(-c3cccnc3)no2)cc1`, 18.3%.
As for `COc1ccc(C)cc1N(CC(=O)Nc1ccc(S(=O)(=O)N2CCOCC2)cc1)S(C)(=O)=O`, the “hERG current change (%, negative = inhibition) at 1uM” value turned out to be 8.19%.
For the molecule `CCOc1ccc(C(=O)Nc2cccc(C(C)=O)c2)cc1[N+](=O)[O-]`, the “hERG current change (%, negative = inhibition) at 1uM” value is on record as 2.22%.
As for `Cc1ccc(NC(=O)C2CCC(N3C(=O)C4CCCCC4C3=O)CC2)cc1` (stereo not drawn), the figure is 10.6%.
As for `Cc1ccccc1-n1c(Cc2cccs2)n[nH]c1=S`, the figure is 11.9%.
With `CCCCNC(=S)Nc1cc([N+](=O)[O-])ccc1C`, the “hERG current change (%, negative = inhibition) at 1uM” value came out at 18.9%.
For the molecule `COc1ccccc1CNC(=O)COC(=O)c1cc(C)oc1C`, the “hERG current change (%, negative = inhibition) at 1uM” value came to 2.86%.
For `COc1ccc(NC2=NC(=S)N(c3ccccc3C)C23CCCCC3)cc1`, the “hERG current change (%, negative = inhibition) at 1uM” value is on record as 9.78%.
`CCOC(=O)c1ccc(NC(=O)c2c(N)n(Cc3ccccc3)c(=O)[nH]c2=O)cc1`: the “hERG current change (%, negative = inhibition) at 1uM” value was 27.2%.
As for `O=C(OCCCc1cc2ccccc2c(=O)o1)c1ccc2c(c1)OCO2`, the “hERG current change (%, negative = inhibition) at 1uM” value was found to be 11.4%.
As to `O=C(O)c1nnn(-c2ccc(F)cc2F)c1-c1ccccc1`, the “hERG current change (%, negative = inhibition) at 1uM” value stood at 6.78%.
In the case of `O=C1NC(=S)S/C1=C/c1ccc(N2CCOCC2)o1`, the “hERG current change (%, negative = inhibition) at 1uM” value is reported as 7.39%.
With `O=C(NCC1CCCO1)c1csc2c1CCCC2` (stereo not drawn) the figure was 7.52%; with `CC(=O)Nc1ccc(S(=O)(=O)N(C)Cc2cnn(C)c2)cc1`, 13.7%.
Regarding `O=[N+]([O-])c1nn(-c2ccc3c(c2)OCCO3)n(O)c1=NC1CCCCC1`, the “hERG current change (%, negative = inhibition) at 1uM” value is on record as -3.73%.
In the case of `Cn1c(CSc2nc3ccccc3s2)nc2ccccc21`, the “hERG current change (%, negative = inhibition) at 1uM” value came to 2.04%.
`N#CC1=C(N)OC2=C(C(=O)CCC2)C1c1cc2c(cc1Cl)OCO2` (stereo not drawn): the “hERG current change (%, negative = inhibition) at 1uM” value is listed as 10.4%.
Take `CCOC(=O)N1CCC(NC(=O)c2cc3cc4cc(OC)ccc4nc3o2)CC1`: the “hERG current change (%, negative = inhibition) at 1uM” value is -1.32%.
On to `Cc1cc(C)n(-c2nc(-c3ccc(Cl)c(Cl)c3)cs2)n1`, for which the “hERG current change (%, negative = inhibition) at 1uM” value turned out to be 6.19%.
Regarding `COc1ccc(Nc2ncccc2C(=O)O)cc1`, the “hERG current change (%, negative = inhibition) at 1uM” value is listed as 3.85%.
On to `CCOC(=O)c1ccc(NC(=O)CSc2nc(=O)n(CCN3CCOCC3)c3c2CCC3)cc1`, for which the “hERG current change (%, negative = inhibition) at 1uM” value is reported as 7.46%.
On to `O=C(c1cc(F)ccc1F)C1CCCN(C(=O)c2ccco2)C1` (stereo not drawn), for which the “hERG current change (%, negative = inhibition) at 1uM” value is recorded as 5.56%.
As to `CCOc1ccc(NC(=O)CSc2nnc(Cc3csc(C)n3)o2)cc1`, the “hERG current change (%, negative = inhibition) at 1uM” value was determined as 7.31%.
On to `Cc1nnc2sc(-c3ccccn3)nn12`, for which the “hERG current change (%, negative = inhibition) at 1uM” value came out at 10.7%.
On to `Cc1ccc(-c2nc(SCC(=O)NCC3CCCO3)c(-c3ccc(Cl)cc3)[nH]2)cc1` (stereo not drawn), for which the “hERG current change (%, negative = inhibition) at 1uM” value worked out at 8.15%.
In the case of `O=C(CCNC(=O)c1ccccc1Cl)NCC(c1ccc(F)cc1)N1CCOCC1` (stereo not drawn), the “hERG current change (%, negative = inhibition) at 1uM” value is 8.45%.
`COc1ccc(CN=C2NC(=O)CC(C(=O)Nc3cc(C)cc(C)c3)S2)cc1` (stereo not drawn): the “hERG current change (%, negative = inhibition) at 1uM” value is -1.01%.
Take `Nc1ccc(-c2ccc(N)c([N+](=O)[O-])c2)cc1[N+](=O)[O-]`: the “hERG current change (%, negative = inhibition) at 1uM” value stood at 5.96%.
Take `Cc1ccc2nc(SCC(=O)Nc3cccc4ccccc34)nc(=O)n2c1`: the “hERG current change (%, negative = inhibition) at 1uM” value was determined as 14.6%.
In the case of `CC(C)CCNC(=O)C(C)N(C(=O)c1snc(C(N)=O)c1N)c1cnc2ccccc2c1` (stereo not drawn), the “hERG current change (%, negative = inhibition) at 1uM” value was determined as 10.4%.
